SMILES strings stand for the structures. The whole screen tested about 39,000 compounds, of which about 220 (0.56%) showed activity. Some of the results follow.
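Further: static incubation at 37 °C against the wild-type strain, values averaged over two biological replicates.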

The subject of this assay is Escherichia coli K-12 BW25113. The assay is described as follows: relative growth (OD600 normalised to plate interquartile mean) (fraction); higher = less growth inhibition, active = 0.2 or less. The settings on record: 50 µM; LB; incubation time: overnight (16-24 h).
Turning to `CC(C)C(O)=C1C(=O)OC(c2ccoc2)C2(C)C(O)C(O)C34OC5(C)OC3(C12)C(O)C1(O)C(O)C2(C)CC1(O5)C4(C)C2CC(=O)O` (stereo not given), the relative growth was inactive: 1.05.
Regarding `COc1cc2c(Oc3ccc(NC(=O)C4(C(=O)Nc5ccc(F)cc5)CC4)cc3F)ccnc2cc1OCCCN1CCOCC1`, the relative growth was inactive: 0.974.
Regarding `CO[C@H]1CN(C)C(=O)c2cc(NC(=O)Nc3ccccc3)ccc2OC[C@@H](C)N(C(=O)CN(C)C)C[C@H]1C`, the relative growth was inactive: 1.04.
On to `COCC(=O)N1C[C@]2(CCN(CC2)C(=O)CN2CCOCC2)c2c([nH]c3cc(ccc23)OC)[C@@H]1CO`, for which the relative growth was inactive: 0.974.
Consider `CN(C)C(=O)C[C@H]1CC[C@H]2[C@@H](COC[C@@H](O)CN2S(=O)(=O)c2ccccc2)O1`, for which the relative growth is inactive: 1.01.
`C[C@@H]1CCCCO[C@H](CN(C)Cc2ccc(C(=O)O)cc2)[C@@H](C)CN([C@H](C)CO)C(=O)c2cc(NS(=O)(=O)c3ccc(Cl)cc3)ccc2O1`: the relative growth is inactive: 1.01.
For `C[C@H]1CN([C@@H](C)CO)C(=O)c2cc(NC(=O)Cn3cnnn3)ccc2O[C@H]1CN(C)Cc1ccc(-c2ccccc2)cc1` the value was inactive: 1.02; for `C[C@@H]1CCCCO[C@@H](CN(C)C(=O)Nc2ccccc2)[C@H](C)CN([C@@H](C)CO)C(=O)c2cc(NS(=O)(=O)c3ccccc3)ccc2O1`, inactive: 1.02.
For `C=C[C@@](C)(O)CC/C=C(\C)C(=O)O[C@@H]1[C@@H]2O[C@]2(C)[C@H]2[C@H](O[C@@H]3O[C@H](CO)[C@@H](O)[C@H](O)[C@H]3O)OC=C[C@@]12O` the value was inactive: 0.991.
With `O=C(C[C@H]1CC[C@@H](NS(=O)(=O)c2ccc(F)cc2)[C@@H](CO)O1)NCc1ccc(Cl)c(Cl)c1`, the relative growth was inactive: 0.992.
Regarding `C=CC(=O)NCCc1ccncc1`, the relative growth is inactive: 1.05.
Consider `CCS(=O)(=O)N1CC[C@]2(CC1)CN([C@H](CO)c1c2c2ccc(cc2n1C)OC)C(=O)c1cccc(c1)F`, for which the relative growth is inactive: 1.01.
In the case of `O=C(Cc1cccs1)N1c2ccccc2Sc2ccccc21`, the relative growth was inactive: 0.881.
`O=C(O)Cc1ccc(-c2ccccc2)cc1`: the relative growth was inactive: 0.821.
For `C[C@@H]1CN([C@H](C)CO)C(=O)Cc2cc(NC(=O)Nc3ccc(C(F)(F)F)cc3)ccc2O[C@@H]1CN(C)Cc1ccncc1` the value was inactive: 0.99; for `Cc1noc(C)c1NC(=O)N[C@H]1CC[C@H](CC(=O)N2CCN(C)CC2)O[C@@H]1CO`, inactive: 1.01.
Regarding `C[C@@H]1CCCCO[C@@H](CN(C)Cc2ccncc2)[C@@H](C)CN([C@@H](C)CO)C(=O)c2cc(NC(=O)Nc3ccc(F)cc3)ccc2O1`, the relative growth is inactive: 1.
For `CN(C)c1ccc(O)c2c1C[C@H]1C[C@H]3[C@H](N(C)C)C(=O)C(C(N)=O)=C(O)[C@@]3(O)C(=O)[C@H]1C2=O` the value was active: 0.184; for `CCN(CC)CC#CCOC(=O)C(O)(c1ccccc1)C1CCCCC1.Cl` (stereo not given), inactive: 1.05; for `C#CCN1[C@H](/C=C/C2CC2)[C@H](Cc2ccccc2)OC(=O)[C@@H]1Cc1ccc(-n2cc(COc3ccccc3/C=C(C)/C=C/C(=O)NO)nn2)cc1`, inactive: 0.999.
For `O=C(C[C@@H]1C[C@@H]2c3cc(NC(=O)NC4CCCC4)ccc3O[C@@H]2[C@H](CO)O1)NCc1ccc(Oc2ccccc2)cc1` the value was inactive: 0.991; for `Cn1c(=O)[nH]c2ncn(C)c2c1=O`, inactive: 1.02; for `CC(=O)OC1(C(C)=O)CCC2C3C=C(Cl)C4=CC(=O)C5CC5C4(C)C3CCC21C` (stereo not given), inactive: 1.07.
Regarding `CSC(=N)Nc1csc(C(F)(F)F)c1-c1ccccc1`, the relative growth was inactive: 0.971.
On to `C[C@@H]1CN([C@H](C)CO)S(=O)(=O)c2ccc(C#CC3(O)CCCC3)cc2O[C@H]1CN(C)C(=O)Cc1ccccc1`, for which the relative growth is inactive: 0.992.
For `C[C@@H]1CN([C@@H](C)CO)S(=O)(=O)c2ccc(C#Cc3ccc(F)cc3)cc2O[C@H]1CN(C)S(=O)(=O)c1ccc(F)cc1`, the relative growth was inactive: 1.01.
`C[C@@H]1CN([C@@H](C)CO)C(=O)c2cc(NC(=O)NC3CCCCC3)ccc2O[C@@H](C)CCCCO[C@H]1CN(C)Cc1ccc(C(=O)O)cc1`: the relative growth is inactive: 1.01.
The figure for `Cc1noc(C)c1S(=O)(=O)Nc1ccc2c(c1)C(=O)N([C@H](C)CO)C[C@H](C)[C@@H](CN(C)CC1CCCCC1)OCCCC[C@H](C)O2` is inactive: 1.02.
Regarding `C[C@@H]1CN([C@@H](C)CO)C(=O)c2cc(NS(=O)(=O)c3ccc(Cl)cc3)ccc2O[C@@H](C)CCCCO[C@@H]1CN(C)Cc1ccccc1`, the relative growth is inactive: 0.99.
For `C[C@@H]1CN([C@@H](C)CO)C(=O)Cc2cc(NS(=O)(=O)c3cn(C)cn3)ccc2O[C@H]1CN(C)CC1CC1`, the relative growth was inactive: 0.983.
Consider `C[C@@H]1CCCCO[C@@H](CN(C)C(=O)C2CCCCC2)[C@@H](C)CN([C@H](C)CO)C(=O)c2cc(NS(=O)(=O)c3ccc(F)cc3)ccc2O1`, for which the relative growth is inactive: 1.
`CC(C)NC(=O)N(C)C[C@H]1OCCCC[C@H](C)Oc2ccc(NS(C)(=O)=O)cc2C(=O)N([C@H](C)CO)C[C@@H]1C`: the relative growth was inactive: 1.03.
Regarding `C[C@@H]1CCCCO[C@H](CN(C)C(=O)CCCN(C)C)[C@@H](C)CN([C@H](C)CO)C(=O)c2cc(NS(=O)(=O)c3cn(C)cn3)ccc2O1`, the relative growth was inactive: 0.979.
For the molecule `CO[C@@H](CN(C)S(=O)(=O)c1cccc(Cl)c1)[C@@H](C)CN([C@@H](C)CO)S(=O)(=O)c1cccc(Cl)c1`, the relative growth is inactive: 1.01.
With `Cc1ccc(S(=O)(=O)Nc2ccc3c(c2)C(=O)N([C@H](C)CO)C[C@@H](C)[C@@H](CN(C)Cc2ccc(C(=O)O)cc2)OCCCC[C@H](C)O3)cc1`, the relative growth is inactive: 1.01.
For `C[C@H](CO)N1C[C@H](C)[C@H](CN(C)C(=O)Nc2ccc(F)cc2)OCc2ccccc2-c2ccccc2C1=O`, the relative growth was inactive: 0.998.
The figure for `C[C@@H]1CCCCO[C@H](CN(C)Cc2ccncc2)[C@H](C)CN([C@H](C)CO)C(=O)c2cc(NC(=O)Nc3ccccc3)ccc2O1` is inactive: 0.834; for `CC(C)c1c(O)c(-c2cc3c(c(C(C)C)c2O)CCC2C(C)(C)CCCC32C)cc2c1CCC1C(C)(C)CCCC21C` (stereo not given) it is inactive: 1.06; for `COc1ccc(CN(C)C[C@@H]2OCCCC[C@H](C)Oc3ccc(NC(=O)Nc4ccc(F)cc4)cc3C(=O)N([C@@H](C)CO)C[C@@H]2C)cc1` it is inactive: 0.964.
For `Cc1noc(C)c1NC(=O)N(C)C[C@@H]1OCCCC[C@@H](C)Oc2ccc(NC(=O)Nc3ccccc3)cc2C(=O)N([C@H](C)CO)C[C@H]1C` the value was inactive: 1.01; for `COCC#Cc1cnc2c(c1)C(=O)N([C@@H](C)CO)C[C@@H](C)[C@@H](CN(C)C(C)=O)O2`, inactive: 0.972.
As for `N[C@H]1CCCN(Cc2cccc(O)c2)C1`, the relative growth is inactive: 1.01.
For the molecule `C[C@@H]1CCCCO[C@@H](CN(C)Cc2ccc(Cl)c(Cl)c2)[C@H](C)CN([C@@H](C)CO)C(=O)c2cc(NC(=O)Nc3ccc(C(F)(F)F)cc3)ccc2O1`, the relative growth is inactive: 1.
The figure for `CC(C)(C)C1CCC(OC[C@@H](O)CN2CCC(CN3C(=O)c4cccc5cccc(c45)C3=O)CC2)CC1` (stereo not given in full) is inactive: 1.1.
On to `COc1ccc(S(=O)(=O)N[C@@H]2C=C[C@@H](CC(=O)NCCc3ccncc3)O[C@@H]2CO)cc1`, for which the relative growth was inactive: 0.985.
For the molecule `C[C@@H]1CCCCO[C@H](CN(C)S(=O)(=O)c2ccccc2)[C@H](C)CN([C@@H](C)CO)C(=O)c2cc(NS(C)(=O)=O)ccc2O1`, the relative growth is inactive: 0.992.
Regarding `CCOC(=O)CSc1nc(=O)cn[nH]1`, the relative growth was inactive: 1.02.
Consider `COc1ccc(NC(=O)N(C)C[C@H]2OCCCC[C@@H](C)Oc3ccc(NC(=O)c4ccccc4)cc3C(=O)N([C@@H](C)CO)C[C@H]2C)cc1`, for which the relative growth is inactive: 0.994.
Regarding `CC(C)NC(=O)Nc1ccc2c(c1)CC(=O)N([C@H](C)CO)C[C@H](C)[C@@H](CN(C)Cc1ccc(Oc3ccccc3)cc1)O2`, the relative growth was inactive: 1.02.
Regarding `C[C@@H]1CN([C@@H](C)CO)C(=O)Cc2cc(NC(=O)CCC(F)(F)F)ccc2O[C@H]1CN(C)S(=O)(=O)c1cccs1`, the relative growth is inactive: 1.
The figure for `COCC(=O)N1C[C@H](C)[C@H](OC)CN(C)C(=O)c2ccc(NC(=O)Nc3ccccc3)cc2OC[C@@H]1C` is inactive: 0.997; for `COc1ccc(NC(=O)Nc2ccc3c(c2)C(=O)N([C@H](C)CO)C[C@H](C)[C@H](CN(C)Cc2ccncc2)OCCCC[C@H](C)O3)cc1` it is inactive: 1.01.
Turning to `C[C@@H]1CN([C@@H](C)CO)C(=O)CCCn2nncc2CO[C@@H]1CN(C)C(=O)Nc1cccc2ccccc12`, the relative growth was inactive: 1.02.
Turning to `C[C@@H]1CN([C@H](C)CO)C(=O)c2cc(NC(=O)Cn3cnnn3)ccc2O[C@@H]1CN(C)Cc1ccncc1`, the relative growth is inactive: 1.01.
For the molecule `COCC#Cc1ccc2c(c1)O[C@@H](CN(C)C(=O)CN(C)C)[C@@H](C)CN([C@H](C)CO)S2(=O)=O`, the relative growth was inactive: 0.854.
Take `C[C@@H]1CCCCO[C@@H](CN(C)CC2CC2)[C@H](C)CN([C@H](C)CO)C(=O)c2cc(NC(=O)CCC(F)(F)F)ccc2O1`: the relative growth was inactive: 1.03.
Regarding `CN1C(=O)[C@@H]2[C@@H]3C[C@H]4[C@@H](O[C@H]1[C@H]42)[C@H]3O`, the relative growth is inactive: 1.
Consider `COCC(=O)N1C[C@@H](C)[C@@H](OC)CN(C)C(=O)c2ccc(NC(=O)c3ccc(F)cc3)cc2OC[C@H]1C`, for which the relative growth is inactive: 0.995.
Regarding `O=C(C[C@H]1C[C@H]2c3cc(NC(=O)NC4CCCC4)ccc3O[C@H]2[C@@H](CO)O1)NCc1ccc(Oc2ccccc2)cc1`, the relative growth is inactive: 0.959.
Turning to `CC(C)(C)[C@H]1COC(=O)[C@@H](NC(=O)OCC2c3ccccc3-c3ccccc32)CC=CC[C@@H](CC(=O)N[C@H](CO)Cc2ccccc2)C(=O)N1`, the relative growth was inactive: 1.02.

Values taken from the supplement of paper PMC9446081.
